Data from patent US11178870B2 (priority 2017, dated 2021).

Assays:
[1] = system: Colletotrichum orbiculare; settings: 250 ppm spray, 2.5 ml/pot; investigated 6 to 10 days after inoculation
[2] = system: Phytophthora infestans; assay type: in vivo; settings: class of control value, Table 7
[3] = system: Magnaporthe grisea; assay type: in vivo; settings: class of control value, Table 7

SMILES | Test H control value (anthracnose on cucumber) [1] | Test F control value (late blight on tomato) [2] | Test A control value (blast on rice) [3]
Cc1cnn(-c2cc(Br)c(=O)n(N)c2-c2ccc(F)cc2F)c1Cl [Compound 376] | H (H shows the control value more than 50%) | L (L shows the control value of 50% or less) | –
CCn1c(-c2c(F)cccc2F)c(-c2ccsc2C)ccc1=O [Compound 377] | H (H shows the control value more than 50%) | H (H shows the control value more than 50%) | H (H shows the control value more than 50%)
CCn1c(-c2c(F)cccc2Cl)c(-n2cc(F)cn2)ccc1=O [Compound 378] | H (H shows the control value more than 50%) | H (H shows the control value more than 50%) | H (H shows the control value more than 50%)
CCn1c(-c2c(F)cccc2Cl)c(-n2cc(F)cn2)cc(Cl)c1=O [Compound 379] | H (H shows the control value more than 50%) | L (L shows the control value of 50% or less) | H (H shows the control value more than 50%)
CCn1c(-c2c(F)cccc2Cl)c(-n2cc(F)cn2)cc(Br)c1=O [Compound 380] | H (H shows the control value more than 50%) | L (L shows the control value of 50% or less) | H (H shows the control value more than 50%)
CCn1c(-c2c(F)cccc2F)c(-c2sccc2C)cc(Cl)c1=O [Compound 381] | H (H shows the control value more than 50%) | H (H shows the control value more than 50%) | H (H shows the control value more than 50%)
CCn1c(-c2ccccc2F)c(-n2cc(F)cn2)ccc1=O [Compound 382] | H (H shows the control value more than 50%) | L (L shows the control value of 50% or less) | H (H shows the control value more than 50%)
CCn1c(-c2ccccc2F)c(-n2cc(F)cn2)cc(Cl)c1=O [Compound 383] | H (H shows the control value more than 50%) | L (L shows the control value of 50% or less) | H (H shows the control value more than 50%)
CCn1c(-c2ccccc2F)c(-n2cc(F)cn2)cc(Br)c1=O [Compound 384] | H (H shows the control value more than 50%) | L (L shows the control value of 50% or less) | H (H shows the control value more than 50%)
Cc1ccsc1-c1ccc(=O)n(CC(F)F)c1-c1c(F)cccc1F [Compound 385] | H (H shows the control value more than 50%) | H (H shows the control value more than 50%) | H (H shows the control value more than 50%)
CCn1c(-c2c(F)cccc2F)c(-c2sc(Br)cc2C)ccc1=O [Compound 386] | L (L shows the control value of 50% or less) | L (L shows the control value of 50% or less) | H (H shows the control value more than 50%)
CCn1c(-c2c(F)cccc2F)c(-c2sc(Br)cc2C)cc(Cl)c1=O [Compound 387] | L (L shows the control value of 50% or less) | L (L shows the control value of 50% or less) | H (H shows the control value more than 50%)
